# Reference: PubChem BioAssay AID686978 (National Center for Advancing Translational Sciences (NCATS), 2013)
# “And” between values parts separate entries of the source, which are not always exact repeats. Equal values may be shown once. About 64,000 (15%) of roughly 420,000 compounds were called active. The inconclusive results got no clear call from the source; some entries with a clear call stand among them for comparison. Calls follow the shape of the dose curve; as a rule, active = well fitted inhibition curve with a large enough effect; inconclusive = small, poorly fitted or top-dose-only effect; inactive = flat fitted curve, though single readings scatter. No potency is given beside an inconclusive call; the fits are too rough. Where a structure was tested more than once in an assay, its records may differ in their call.
# Test: qHTS for Inhibitors of human tyrosyl-DNA phosphodiesterase 1 (TDP1): qHTS in cells in absence of CPT; also: nearly all actives have a fitted effect of over 55% in size
# Conditions: DT40 Tdp1-/- hTDP1 cells, no CPT, ATP luminescence, 48 h; series mostly up to 46.2 µM
# Procedure, shortened: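 A cellular qHTS used chicken DT40 cells lacking endogenous Tdp1 but carrying stably transfected human TDP1. Compounds were applied without camptothecin, and cell growth kinetics were judged by ATP-dependent luminescence after ≥48 hr.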
# Potency is read from the fitted curve at half-maximal effect; tags tell the direction and shape of the fitted curve.
row,Compound,Potency
1,Cc1ccc(S(=O)(=O)N2CCCCC2)cc1NC(=O)CN1CC=C(c2ccccc2)CC1,active: 5.17 µM
2,COc1ccc(CC(C)NC2CCCCCC2)cc1 (stereo not given),"inconclusive [inhibitor, partial curve, poor fit]"
3,O=C(NC1CCCCC1)N1Cc2cc(-c3ccccc3)ccc2-n2nncc2C1,"inconclusive [inhibitor, single point]"
4,CC1CC(C)CN(S(=O)(=O)c2ccc3c(c2)oc(=O)n3CC(=O)N(C)Cc2ccccc2)C1 (stereo not given),"inconclusive [inhibitor, single point]"
5,Cc1ccc(C=C2C(Cl)=C(Cl)C(Cl)=C2Cl)cc1,active: 5.17 µM
6,CN1CC(C(=O)c2ccc(Cl)cc2)C(c2ccccc2)C1 (stereo not given),"inconclusive [inhibitor, partial curve]"
7,C=CCn1c(O)c(C(CC)=NCCc2ccccc2)c(=O)[nH]c1=O,"inconclusive [inhibitor, single point]"
8,Cn1c(=O)oc2cc(S(=O)(=O)N3CCC(C(=O)N4CCN(c5ccc(F)cc5)CC4)CC3)ccc21,active: 9.2 µM
9,O=C(Cn1c(=O)n(CC2CCC(C(=O)NCCc3ccccc3)CC2)c(=O)c2ccccc21)Nc1cccc(F)c1 (stereo not given),"inconclusive [inhibitor, partial curve]"
10,COC(=O)C1=C(c2ccc3ccccc3c2)C[C@@H]2CC[C@H]1N2C(=O)NCCO,"inconclusive [inhibitor, partial curve]"
11,COc1cc(OC)c(/C=C2\C(=O)Nc3ccccc32)c(OC)c1,active: 2.59 µM
12,Cc1cc(C)c(C2=NOC(O)(C(F)(F)F)C2)c(=O)[nH]1 (stereo not given),"inconclusive [inhibitor, single point]"
13,O=C(c1ccco1)N1CCN(C(=O)c2ccc(COc3ccc(Cl)cc3Cl)o2)CC1,"inconclusive [inhibitor, single point]"
14,COc1cc(C2c3cc4c(cc3C(O)[C@H]3COC(=O)C23)OCO4)cc(OC)c1OC (stereo not given in full),active: 146 nM and active: 36.6 nM
15,COc1ccc(NC(=O)CN(C)C(=O)CSC(c2ccccc2)c2ccccc2)cc1,"inconclusive [inhibitor, partial curve, poor fit]"
16,Cc1cc(C)cc(N2C(=O)NC(=O)/C(=C\c3cccn3-c3ccccc3)C2=O)c1,"inconclusive [inhibitor, single point]"
17,COc1ccc(C(=O)Nc2ccccc2-c2nnn(CC(=O)Nc3ccc4c(c3)OCCO4)n2)cc1,"inconclusive [inhibitor, single point]"
18,Brc1cccc(CNCCc2ccc3c(c2)OCO3)c1,"inconclusive [inhibitor, single point]"
19,CC1Cc2ccccc2N1Cc1cccc(S(=O)(=O)N(C)C)c1 (stereo not given),"inconclusive [inhibitor, single point]"
20,Cc1cccc(N2CCN(C(=O)CCCCn3c(=O)[nH]c4ccsc4c3=O)CC2)c1C,active: 18.4 µM
21,COc1ccc(S(=O)(=O)N2CCN(C(=O)c3ccc(COc4ccccc4)o3)CC2)cc1,"inconclusive [inhibitor, single point]"
22,c1csc(CN2CCCC3(CCNCC3)C2)n1,"inconclusive [inhibitor, single point]"
23,COC(=O)C1=C(c2ccccc2OCc2ccccc2)C[C@@H]2CC[C@H]1N2C(=O)NCCCOC(C)C,"inconclusive [inhibitor, single point]"

row,Compound,Potency
1,CCN(CC)P(=O)(/C=C(\Cl)c1ccccc1)/C=C(\Cl)c1ccccc1,inactive
2,O=C(COc1ccc2ccccc2c1)N1CCN(CC2CC3C=CC2C3)CC1 (stereo not given),active: 18.4 µM
3,CCOCCSc1nc2c(c(-c3cccs3)c1C#N)CC/C2=C/c1cccs1,"inconclusive [inhibitor, single point]"
4,CN(C)Cc1c[nH]c2ccccc12,active: 13 µM
5,O=C1c2ccccc2C(=O)C1C(=O)C(c1ccccc1)c1ccccc1,"inconclusive [inhibitor, single point]"
6,CCOC(=O)Nc1ccc2c(c1)N(C(=O)CN(C)C)c1ccccc1CC2,"inconclusive [inhibitor, single point]"
7,COc1ccc(-c2nc(CN3C(=O)CN=C(c4ccccc4)c4ccccc43)c(C)o2)cc1,active: 18.4 µM
8,CN(C)Cc1c[nH]c2cc([N+](=O)[O-])ccc12,inactive
9,CC(C)Oc1ccc(CCN)cc1Cl,active: 5.8 µM
10,CO[C@H]1CC=C2CCN3CCC4=C(CC(=O)OC4)[C@]23C1,inactive
11,CCOC(=O)C1=C(C)OC(N)=C(C#N)C12C(=O)N(C)c1ccccc12 (stereo not given),inactive
12,c1cc(CN2CCCC3(CCNCC3)C2)ccn1,"inconclusive [inhibitor, single point]"
13,Cc1cccc(NP(=O)(Oc2ccccc2)Oc2ccccc2)c1C,"inconclusive [inhibitor, single point]"
14,CN1C(=O)CN=C(c2ccccc2Cl)c2cc(Br)ccc21,inactive
15,COP(=O)(OC)C1(Nc2ccc(C)cc2)CCCCC1,"inconclusive [inhibitor, single point]"
16,CCCCOc1ccc(CN2CCN(CCO)CC2)cc1,inactive
17,Cc1ccc(-n2c(C)nc3ccccc3c2=O)cc1C,active: 14.6 µM
18,CCCCN1CCS(=O)(=O)N(Cc2ccccc2Br)CC(C(=O)OC)C1 (stereo not given),"inconclusive [inhibitor, single point]"
19,Cc1c(C=O)c2ccccc2n1Cc1cccc(F)c1,"inconclusive [inhibitor, single point]"
20,CC(=O)N1CCCc2cc(S(=O)(=O)N3CCCC(C(=O)N4CCN(c5ccccc5F)CC4)C3)ccc21 (stereo not given),active: 5.8 µM
21,CN(C)c1ccc(/C=C/c2ccnc3c(O)cccc23)cc1,active: 10 µM
22,O=Cc1cn(CCCOc2ccccc2)c2ccccc12,"inconclusive [inhibitor, single point]"
